From PubChem BioAssay AID504832 (National Center for Advancing Translational Sciences (NCATS), 2011)
About 18,000 (5.8%) of roughly 310,000 compounds were called active. Inconclusive results, whose numbers are uncertain, are shown with a selection of clear calls. Calls follow the shape of the dose curve; as a rule, active = well fitted inhibition curve with a large enough effect; inconclusive = small, poorly fitted or top-dose-only effect, or another doubt; inactive = no such curve, though single readings can be large or run the other way. No potency is given beside an inconclusive call; the fits are too rough.

Test: Primary qHTS for delayed death inhibitors of the malarial parasite plastid, 48 hour incubation
Conditions: P. falciparum luciferase growth in erythrocytes; series mostly up to 28.7 µM
Procedure, shortened: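 Luciferase-expressing P. falciparum in infected erythrocytes (2% hematocrit, 0.1% parasitemia final) in RPMI 1640/0.5% Albumax were exposed to compound for 48 hours at 37 C, 5% CO2; growth read as luminescence.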
Potency is read from the fitted curve at half-maximal effect; tags tell the direction and shape of the fitted curve.

Compound	Potency
CCC(=O)N1CCc2cc(S(=O)(=O)NCCN3CCCCC3CC)ccc21 (centres undefined)	inconclusive [inhibitor, single point]
Cc1cc(=O)n2c3ccccc3n(CC(O)CN3CCCC3)c2c1C#N (centres undefined)	inconclusive [inhibitor, single point]
CC(=O)NC1CC2CCCC(C1)N2CC(=O)N1CCCc2ccccc21 (centres undefined)	inactive
C/C(=N\NP(=S)(c1ccccc1)c1ccccc1)c1ccc(O)cc1O	inconclusive [inhibitor, partial curve]
CCOC(=O)c1c(N)n(-c2ccc(N)cc2)c2nc3ccccc3nc12	inconclusive [inhibitor, single point]
CCOC(=O)c1cc(/C(C)=N/OC(=O)c2ccc(C(C)(C)C)cc2)on1	inactive
COc1cc(C2c3c(oc4cc(C)c(C)cc4c3=O)C(=O)N2c2cc(C)ccn2)ccc1O (centres undefined)	inconclusive [inhibitor, single point]
COc1cc2ccccc2cc1C(=O)N1CC(C)CC(C)C1 (centres undefined)	active: 0.329 µM
CC(C)C[C@H](NC(=O)c1nc[nH]c1C(=O)N[C@@H](CC(C)C)C(=O)OCc1ccccc1)C(=O)OCc1ccccc1	inconclusive [inhibitor, full curve]
Cc1ccc(/C=C(/C#N)C(=O)NC(=O)Oc2ccccc2)cc1	inactive
O=C(c1cccc(S(=O)(=O)NCc2ccccc2)c1)N1CCN(c2ccc(F)cc2)CC1	inconclusive [inhibitor, single point]
CCN(C(=O)CSc1nc2ccccc2c(=O)n1CCOC)C1CCS(=O)(=O)C1 (centres undefined)	inactive
CNC(=O)COC(=O)c1cc(-c2ccc(OC)cc2)nc2ccccc12	inactive
CCc1cc(=O)oc2c(C)c(O)c(CN3CCCCC3)cc12	inconclusive [inhibitor, partial curve, poor fit]
COc1ccc(CCNC(=O)c2ccc(SC)cc2OC)cc1	inconclusive [inhibitor, single point]
Cc1ccccc1-n1c(SCC(=O)Nc2cccc3ccccc23)nc(O)cc1=O	active: 13.1 µM
O=C(/C=C/c1cccs1)Nc1nc(-c2ccccc2)cs1	inconclusive [inhibitor, single point]
COc1ccc(C(=O)NCc2ccccc2)cc1Br	inactive
O=[N+]([O-])c1ccc(Sc2cccc[n+]2[O-])c2nonc12	active: 2.94 µM
CC(=O)Nc1ccc(N2C(=O)CC(N3CCN(Cc4ccc5c(c4)OCO5)CC3)C2=O)cc1 (centres undefined)	inactive
COc1ccc(/C=C2/SC(=S)N(CCCC(=O)Nc3cccc(O)c3)C2=O)cc1	active: 14.7 µM
COc1ccc(NC(=O)C(NC(=O)c2ccc(C)cc2)c2ccccc2)cc1 (centres undefined)	inconclusive [inhibitor, partial curve, poor fit]

Compound	Potency
Cc1ccc(CNC(=O)c2ccc3nc4[nH]c5ccccc5c4nc3c2)cc1	inconclusive [inhibitor, single point]
COc1cc(OC)cc(C(=O)Nc2ccccc2-c2nnn(CC(=O)Nc3cc(C)on3)n2)c1	inconclusive [inhibitor, full curve]
CCOCCn1ccc2c(OCC(=O)Nc3ccc(OC)c(OC)c3)cccc2c1=O	inconclusive [inhibitor, single point]
N#Cc1c(-c2ccccc2)ccn(Cc2cccc(Cl)c2)c1=O	inconclusive [inhibitor, single point]
COc1ccc(-c2ccc(CNCCCN3CCOCC3)o2)cc1Cl	inconclusive [inhibitor, single point]
O=C(CCC(=O)c1cccs1)NCC(c1ccc(F)cc1)N1CCOCC1 (centres undefined)	inconclusive [inhibitor, partial curve]
CC(=O)NS(=O)(=O)c1ccc(NC(=O)c2cc(-c3ccc(C)cc3)nc3ccccc23)cc1	inactive
COc1cccc(NC(=O)CN(C)C(=O)CCN2C(=O)C3CC=CCC3C2=O)c1 (centres undefined)	inactive
Cc1cccc(C)c1NC(=O)CSc1nnc(CCCCCNC(=O)OC(C)(C)C)o1	inconclusive [inhibitor, partial curve, poor fit]
COCCOC(=O)c1c(N)n(CCCN2CCOCC2)c2nc3ccccc3nc12	inconclusive [inhibitor, partial curve, poor fit]
O=C(CCc1ccc(S(=O)(=O)NCc2ccccc2)cc1)NCc1ccc2c(c1)OCO2	inactive
CCCCNC(=O)c1onc(CSc2ccc(F)cc2)c1C(=O)NCCCC	inconclusive [inhibitor, partial curve, poor fit]
COc1cc(C2CC(=O)Nc3n[nH]c(-c4ccccc4)c32)cc(OC)c1OC (centres undefined)	inconclusive [inhibitor, partial curve]
C/C(=C\C(=O)c1ccccc1)NCc1ccc(F)cc1	inconclusive [inhibitor, full curve, poor fit]
O=S(=O)(NCc1ccc(F)cc1)c1ccc(-n2cccn2)cc1	inactive
O=C(NCCc1ccccn1)c1ccc(OC(F)F)cc1	inactive
C(=N\Nc1nc(Nc2ccccc2)nc(N2CCOCC2)n1)/c1c[nH]c2ccccc12	inconclusive [inhibitor, partial curve, poor fit]
CC(C)C[C@@H](C(=O)NCc1ccco1)N1C(=O)N2CCc3c([nH]c4ccccc34)[C@@]2(C)C1=O	inconclusive [inhibitor, partial curve]
CCCn1nnc(NC(=S)NC(=O)c2ccc(-c3ccc(Br)cc3)o2)n1	inactive
CCC(CC)C(=O)N1N=C(c2ccc(NS(C)(=O)=O)cc2)CC1c1ccc(C)cc1 (centres undefined)	inconclusive [inhibitor, partial curve]
CCOC(=O)c1c(NC(=O)C(C)N2CCN(S(=O)(=O)c3cccs3)CC2)sc2c1CCC(C)C2 (centres undefined)	inactive
CC(Sc1nc2ccccc2c(=O)n1CC1CCCO1)C(=O)Nc1ccc(S(N)(=O)=O)cc1 (centres undefined)	inconclusive [inhibitor, partial curve]
